# In the supplement of paper PMC10338343:
# ± gives the standard deviation. Whole data set: some 5,500 sequences, median “pre-steady-state target cleavage rate” near 0.1, cut for the highest 2% near 0.64. This is a selection; strong and weak results do not stand in their true shares.
# Tested on: MIWI (PIWIL1) piRISC loaded with piRNA #2 (30 nt)
# Test: pre-steady-state target cleavage rate (min^-1); MIWI and MILI are mouse PIWI proteins and EfPiwi is from a freshwater sponge; tags in brackets are library labels; higher = faster piRNA-guided slicing of the target
# Settings: guide: piRNA #2 5'p-UUAGGUAACCCAGUAGAUCCAGAGGAAUUC; auxiliary factor: 500 nM mouse GTSF1
# Summary of the method: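 A transcribed, DNA-blocked target RNA library […] was incubated at 33 °C for 0–8 or 0–960 min with 1 nM active affinity-purified piRISC carrying one synthetic guide, in HEPES–potassium acetate buffer with or without 500 nM GTSF1 partner protein. Uncleaved targets were then sequenced and normalised to depth and to weakly complementary targets. Data from three trials were pooled, with k3 capped at 0.0001 min^-1, and a burst-and-steady-state fit yielded the pre-steady-state cleavage rate.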
row,Sequence,pre-steady-state target cleavage rate
1,CUUAUCCUCUGGAUCUACUGGGUAUACCUAA,0.416 ± 0.051
2,CUUAAGGAGACCUUCUACUGCGGUUACCUAA,0.00469 ± 0.0026
3,CUAUUCCUCUGGAUCAACUGGGUUUCCUAA,0.267 ± 0.056
4,CUUAAGGACUGGAUCUAGUGGGAUACCUAA,0.00604 ± 0.0053
5,CAAUUCCUCUGCAUCUACUGGGUUACCAAA,0.381 ± 0.055
6,CUAUUCCUCUGGAUCUACUGGCUAACCUAA,0.0114 ± 0.0053
7,GAAAACCUCUGGAUCUACUGGGUUACCUAA,0.113 ± 0.027
8,CUUAUCCUCUGCAUCUAGUGGGUUACCUAA,0.116 ± 0.013
9,GAUAUUCCUCUGGAUCUACUGGGUUACCUAA,0.165 ± 0.038
10,CUUAAGGUCUGGAUCAACUGGGUUACCUUA,0.0897 ± 0.014
11,CUUAUCCGUCUGGAUCUACUGGGUUACCUAA,0.437 ± 0.054
12,GAAUUCCUCUGGAUCUACUGGGUUACGCUAA,0.498 ± 0.049
13,CUUAAGGACUGGAUCAACAGGGUUACCUAA,0.0104 ± 0.0083
14,CUUAAGGAGAGCGAUCUACUGGGUUACCUAA,0.00514 ± 0.003
15,CUUAAGGAUUGGAUCUACUGGGUUACCUAA,0.185 ± 0.041
16,CUUAAGGAGUGGAUCUACAGGGUUACCUUA,0.00843 ± 0.0024
17,GAAUUCCUCUGGAUCUACUCCGUUACCUAA,0.0299 ± 0.0075
18,CUUAAGGACUGGAUCUCCUGGGUUACCUAA,0.0486 ± 0.027
19,CUUAUCCUCUGGAUCAACAGGGUUACCUAA,0.21 ± 0.026
20,CUUAUCCUCAGGAUCUACUGGGUUAGCUAA,0.1 ± 0.036
21,CUUAAGGACUGGAUCUACUGGGAUACCUUA,0.0205 ± 0.018
22,CUUAACCUCUGGAUCGUACUGGGUUACCUAA,0.00478 ± 0.0048
23,CUUAACCUCUGGAUCUACUGGGUUACCCUAA,0.0717 ± 0.018
24,GAAUUCCUCUGGAUCUACUCGGUAACCUAA,0.00964 ± 0.0052

row,Sequence,pre-steady-state target cleavage rate
1,CUAUUCCUCUGGAUCUACUGGGUUAACCUAA,0.464 ± 0.054
2,CUUAAGGUCUGGAUCUACUGGGUUACCUGAA,0.0645 ± 0.022
3,CUUAACCUCUGGAUGUACUGGGUUACCUUA,0.261 ± 0.022
4,CUUUUCCUCUGGAUCUACUGGGUUUGGUAA,0.0711 ± 0.021
5,CUUUAGGUCUGGAUCUACUGGGUUACCUAA,0.145 ± 0.015
6,CUUAACCUCUGCAUCUACUGGGUUUCCUAA,0.0256 ± 0.0076
7,CUUAAGGUCUGGAUCUUCUGGGUUACCUUA,0.0759 ± 0.015
8,CUUAUCGUCUGGAUCAACUGGGUUACCUAA,0.149 ± 0.027
9,CUUAAGGUCUGGAUCUUCAGGGUUACCUAA,0.0535 ± 0.01
10,GAUUUCCUCUGGUUCUACUGGGUUACCUAA,0.524 ± 0.046
11,CUUAAGGAGUGGAUCUACUGGGAUACCUAA,0.0179 ± 0.0072
12,GAAUUGCUCUGGAUCUUCUGGGUUACCUAA,0.0512 ± 0.017
13,CUUAAGCUCUGCAUCUUCUGGGUUACCUAA,0.122 ± 0.017
14,CUUAAGCUUGGAUCUACUGGGUUACCUAA,0.22 ± 0.024
15,CAAAUCCUCUGGAUCAACUGGGUUACCUAA,0.458 ± 0.052
16,CUUAAGGAGACCUACUACAGCGUUACCUAA,0.00678 ± 0.0028
17,GAAUUCCUCUGGAUCUACUGUGGUUACCUAA,0.00388 ± 0.0038
18,GAAUUCCUCUGGAUCUACUGGGUUACCAAA,0.318 ± 0.047
19,CAAUUCCUCUGGAUCUACACCGUUACCUAA,0.0914 ± 0.012
20,CUUAUGCUCUGGAUCUACUGGGAUACCUAA,0.133 ± 0.017
21,GAAUUCCUCUGCAUCUACAGGGUUACCUAA,0.273 ± 0.021
22,CUUAAGGUCUGGAUCUACUGGGUUACCAUA,0.203 ± 0.029
23,CUUAACCUCUAGGAUCUACUGGGUUACCUAA,0.199 ± 0.021
24,CAUUUCCUCUGGAUCUACAGGGUUACCUAA,0.373 ± 0.039

row,Sequence,pre-steady-state target cleavage rate
1,CAAUUCCUCUGGAUCUUGUGGGUUACCUAA,0.00475 ± 0.0032
2,CAAUUCCUCUCGAUCUACUGGGUUAGCUAA,0.507 ± 0.046
3,CUUUUCCUCUGGAUCUUCUGGGUUAGCUAA,0.084 ± 0.021
4,CUUAUCCUCUGGAUCUACUGGGUUUACCUAA,0.449 ± 0.052
5,CUUAAGGAGUGGUUCUACAGGGUUACCUAA,0.00873 ± 0.0022
6,CAAUUCCUCAGGAUCAACUGGGUUACCUAA,0.526 ± 0.058
7,CUUAAGGUGCUGGAUCUACUGGGUUACCUAA,0.152 ± 0.017
8,CUUAACCUCUGCAUCUACUGGGUUACCUUA,0.129 ± 0.018
9,CUUAAGCUCUGGCAUCUACUGGGUUACCUAA,0.14 ± 0.026
10,CUUAAGGUCUGGAUCUUCUGGGUUAGCUAA,0.0288 ± 0.0091
11,CUUAAGCUAUGGAUCUACUGGGUUACCUAA,0.298 ± 0.036
12,CUUAUCCUCUGGAUCUAUGGGUUACCUAA,0.011 ± 0.0027
13,GAAUUGGUCUGGAUCUACUGGGUUACCUAA,0.0831 ± 0.027
14,CUUAUCCUCUGGAUCUACUGGGAUUACCUAA,0.16 ± 0.037
15,CUUAUCCUCUGGAUCUACUGGGUUCCCUAA,0.241 ± 0.043
16,CUUAAGCUCUGGAUCUACUGGGUUACAUAA,0.53 ± 0.051
17,CUUAAGCUCUGGAUGUACUGGGUUAGCUAA,0.0878 ± 0.011
18,GAAUUCCUCUGCAUCUACUGGGUUUCCUAA,0.259 ± 0.061
19,CUUAAGGUCUGGUUCUACUGGGUUACCUUA,0.0228 ± 0.0053
20,CUAUUCCUCUGGAUCUAGACCCAAUGGAUA [g14:g28:cont:t1A],< 0.0001
21,CUUAAGGUCUGGAUGAACUGGGUUACCUAA,0.0299 ± 0.029
22,CAAUUCCUCUGGUUCAACUGGGUUACCUAA,0.625 ± 0.046
23,CUUAAGGAGUGGAUCUACUGGGUGUACCUAA,0.0301 ± 0.013
24,CUUAAGGAGUGGAUCUACUGGGUUACCUA,0.115 ± 0.021
